# Source: publication PMC6451091
# This is one part of the list. At the low end of the ranking, values are background and their order means little.
# Target: PU.1 (IVT) (UniProt P17947)
# Assay: protein-binding microarray (PBM)
# Details: 20 mM HEPES pH 7.9, 100 mM NaCl, 1 mM DTT, 0.2 mg/mL BSA, 0.02% Triton X-100, 2% milk, 0.4 mg/mL salmon testes DNA; 1 h; temperature not stated; high values mean tight binding; double strand, one strand shown; sequences stand for … in GCCTAGCAC…GTGCTAGGTCTTGATTCGCTTGACGCTGCTG
row,Sequence,binding signal
1,GATTGGCCATGCTGACGCTG,-1.02 z-score
2,GTTTGCTTACTGCCGGGACA,-0.568 z-score
3,TTGAGATGTGAGTTGGATTC,-0.394 z-score
4,ATAACACATGTAGAGGAATA,0.508 z-score
5,TACTATATATGTGGTCACCC,0.45 z-score
6,TTCACGCCATTCTCCTGCCT,0.0523 z-score
7,GGTTTAAAACGGGAAAACGA,0.661 z-score
8,GGTGGAACCCTCGAATTCTT,-0.117 z-score
9,GCATCGTCGGTGTATTTTGT,-0.354 z-score
10,GTCCAAAGTGGTCCTGGGAA,2.06 z-score
11,GAGGCTGGCTGTGGCTCAAC,-0.64 z-score
12,AGCAAAAATTTTTAACCCAA,0.222 z-score
13,GATCCGTCAAAATGGGCCTC,-0.456 z-score
14,GGACTTCTCACTGGGCATAA,0.448 z-score
15,CGCACCCCGCCTCCCTGGCC,-0.732 z-score
16,AGCCCTGGGCAGCAGCCAGG,-0.841 z-score
17,TACAACAAAAACTACTATTC,0.0289 z-score

row,Sequence,binding signal
1,AAGAGGCCGAGGACCACAGC,-0.398 z-score
2,GCCAGCCCCCAACCCTGGTC,0.0931 z-score
3,CATAACATAAAATTTACCAT,-0.11 z-score
4,TGAGAGGCTGCGTGAAACCT,-0.683 z-score
5,AAGAAAGCTGCCTGAAAGTA,-0.576 z-score
6,CTGTGCTAAAATCTGCCTCC,-0.105 z-score
7,TGGTTGTACCACACCTCAAC,-0.0859 z-score
8,AATTTTCCTTACGCAAATCT,-0.382 z-score
9,AAGTGGCATATTTAAAAATC,-0.398 z-score
10,ACACAAAGTGGCAAGATGCT,-0.193 z-score
11,GTTGCCATCATCTCTATAGC,-0.212 z-score
12,AAATGCAGAAGTCATTTAAA,3.68 z-score
13,ATGAAAAGAAAACCAAGATA,-0.172 z-score
14,ACAAACAAACAAAAGCTCAC,-0.0367 z-score
15,GTGAGCTTTTTGTCTTCAAA,-0.296 z-score
16,ACAAACAGAAGTTACCACTT,1.14 z-score
